The text below walks through data of PubChem BioAssay AID1645882 (National Center for Advancing Translational Sciences (NCATS), 2021).

The campaign covered roughly 16,000 compounds. About 120 (0.75%) were called active. Roughly 4% stayed inconclusive and do not appear here. Calls come from the whole dose curve; as a rule, active = well fitted inhibition curve with a large enough effect; inconclusive = small, poorly fitted or top-dose-only effect; inactive = no such curve, though single readings can be large or run the other way. Some of the results follow.

Sequence of UniProt O95398 (O95398 whole entry, looked up): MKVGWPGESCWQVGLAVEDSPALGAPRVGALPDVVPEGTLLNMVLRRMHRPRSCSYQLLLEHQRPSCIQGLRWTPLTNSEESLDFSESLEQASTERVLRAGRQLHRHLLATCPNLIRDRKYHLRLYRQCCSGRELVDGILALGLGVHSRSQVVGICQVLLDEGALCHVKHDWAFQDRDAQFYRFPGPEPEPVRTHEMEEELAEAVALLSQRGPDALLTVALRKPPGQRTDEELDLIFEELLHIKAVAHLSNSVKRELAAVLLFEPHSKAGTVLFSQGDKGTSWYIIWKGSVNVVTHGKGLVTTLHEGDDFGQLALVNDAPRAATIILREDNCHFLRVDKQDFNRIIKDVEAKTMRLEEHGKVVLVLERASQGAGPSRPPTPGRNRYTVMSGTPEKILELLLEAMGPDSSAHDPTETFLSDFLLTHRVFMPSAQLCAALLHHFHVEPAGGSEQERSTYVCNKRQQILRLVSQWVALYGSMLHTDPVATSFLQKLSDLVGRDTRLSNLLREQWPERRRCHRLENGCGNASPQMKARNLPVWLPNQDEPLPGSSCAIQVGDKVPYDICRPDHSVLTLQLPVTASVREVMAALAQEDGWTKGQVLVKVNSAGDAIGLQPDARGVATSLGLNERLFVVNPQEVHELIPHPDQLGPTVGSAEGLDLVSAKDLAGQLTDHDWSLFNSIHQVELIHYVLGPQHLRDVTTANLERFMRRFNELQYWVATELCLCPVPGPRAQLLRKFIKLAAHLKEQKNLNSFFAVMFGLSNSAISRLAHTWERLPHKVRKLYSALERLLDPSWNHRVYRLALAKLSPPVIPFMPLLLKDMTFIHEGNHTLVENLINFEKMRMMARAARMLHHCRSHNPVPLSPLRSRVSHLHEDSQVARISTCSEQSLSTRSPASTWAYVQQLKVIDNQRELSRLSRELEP

In this test the target is Rap guanine nucleotide exchange factor 3 (Homo sapiens) (UniProt O95398). The experiment in a line: Validation qHTS for antagonist of cAMP-regulated guanine nucleotide exchange factor 3 (EPAC1).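 Note: plate controls were DMSO for no effect and ATA control for full effect; nearly all actives have a fitted effect of over 75% in size.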 The note with it: EPAC1 Rap1B-BODIPY-GDP exchange, fluorescence; series mostly up to 150 µM; activity change, negative = inhibition: at the top concentration. An outline of the steps:
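Nucleotide exchange followed as fluorescence loss when BODIPY-GDP leaves Rap1B (480 nm excitation, 540 nm emission), read at 5 min intervals over 30 min. Reaction: 100 nM EPAC1, 250 nM RAP1B-BODIPY-GDP, 50 uM GDP; ATA and DMSO define normalization.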
Turning to `O=C(O)c1ccncc1`, the “activity change, negative = inhibition” value was inactive: 19.1%.
With `O=[N+]([O-])O[C@@H]1CO[C@H]2[C@@H]1OC[C@@H]2O`, the “activity change, negative = inhibition” value was inactive: 6.19%.
As for `O=C(NCCCN1CCCCCC1)C(c1ccccc1)C1CCCCC1` (stereo not given), the “activity change, negative = inhibition” value is inactive: 4.66%.
Regarding `COc1ccc(C(=O)N2CCC3(CC2)CN(c2ccccc2)C3)cc1`, the “activity change, negative = inhibition” value is inactive: -2.38%.
With `COc1ccc(C2(C(=O)NCC3Cc4cccc(-c5nc(C)cnc5C)c4O3)CCCC2)cc1` (stereo not given), the “activity change, negative = inhibition” value was inactive: 6.42%.
Regarding `CN[C@H]1CCc2cc(OC)c(OC)c(OC)c2-c2ccc(OC)c(=O)cc21`, the “activity change, negative = inhibition” value is inactive: 18.9%.
With `N#Cc1ccc(CN2CCCC3(CCN(C(=O)c4csnn4)CC3)C2)cc1`, the “activity change, negative = inhibition” value was inactive: 3.47%.
For `Cc1ccnc(NS(=O)(=O)c2ccc(N)cc2)n1`, the activity change, negative = inhibition result was “inactive”.
The figure for `O=C(Nc1ccc(Cl)cc1Cl)[C@@H]1CC=C[C@@H]2CCN(Cc3ccccc3)C(=O)[C@@H]21` is inactive: -11.2%.
Turning to `NC(=O)OCC(COC(N)=O)c1ccccc1`, the activity change, negative = inhibition entry was “inactive”.
In the case of `Cc1nc2cnc(Nc3ccccc3)nc2n(Cc2cccs2)c1=O`, the “activity change, negative = inhibition” value is inactive: 17.8%.
For `COc1ccccc1-c1cc(NCc2cnc(C)cn2)ncn1` the value was inactive: 11.1%; for `COC(=O)C1N2C(=O)[C@@H](NC(=O)COc3ccccc3)[C@H]2SC1(C)C` (stereo not given in full), inactive: -2.56%; for `Fc1ccc([C@H]2CCNC[C@H]2COc2ccc3c(c2)OCO3)cc1`, inactive: -6.41%.
Consider `O=c1c(O)c(-c2ccccc2)oc2cccc(O)c12`, for which the “activity change, negative = inhibition” value is inactive: -7.83%.
Take `Cc1cc(C(=O)O[C@H]2[C@H](C)NS(=O)(=O)[C@H]3C[C@@H]4C=C[C@]23O4)cc([N+](=O)[O-])c1`: the “activity change, negative = inhibition” value was inactive: 3.38%.
The figure for `C(=C1C=c2ccccc2=C1)c1ccc(N=Nc2ccc(C=C3C=c4ccccc4=C3)cc2)cc1` is inactive: -0.575%.
Turning to `O=C(NCc1ccccn1)c1cnn(-c2nccc(-c3cc4ccccc4o3)n2)c1C1CC1`, the “activity change, negative = inhibition” value was inactive: 8.83%.
On to `COc1ccc(C[C@H](N)C(=O)N[C@H]2[C@@H](O)[C@H](n3cnc4c(N(C)C)ncnc43)O[C@@H]2CO)cc1`, for which the “activity change, negative = inhibition” value is inactive: 15.1%.
The figure for `[O-][n+]1cccc(CO)c1` is inactive: 1.71%; for `COc1ccc(CCNC(=O)C(=O)c2c[nH]c3ccccc23)cc1` it is inactive: -13.5%.
As for `COC(=O)c1cc(-c2c(-c3ccc4c(c3)OCO4)noc2-c2ccsc2)cc([N+](=O)[O-])c1`, the “activity change, negative = inhibition” value was inactive: 12.1%.
For `Cc1nc(CC(=O)NCC2Cc3cc(F)cc(-c4ccc(F)c(C)c4)c3O2)cs1` (stereo not given), the “activity change, negative = inhibition” value is inactive: -13.7%.
Turning to `O=C(c1cccc(F)c1)N1CCC2(CC1)CN(c1cccc(-c3ccccc3)c1)C2`, the “activity change, negative = inhibition” value is inactive: -4.46%.
As for `COCc1nc2c([nH]1)c(=O)n(C)c(=O)n2CC(C)C`, the activity change, negative = inhibition result was “inactive”.
`CCCCCCCCCC[Si](C)(C)CCC(=O)NC(Cc1ccc(C)cc1)c1ccccc1` (stereo not given): the “activity change, negative = inhibition” value is inactive: -3.54% [at 75.8 µM].
The figure for `CN1CCC(Nc2ncc3ncnc(Nc4ccc(F)c(Cl)c4)c3n2)CC1` is inactive: 18.7%; for `O=C1C(c2[nH]c3ccccc3c2O)=Nc2ccccc21` it is inactive: 0.283%.
On to `Cc1cccc(CNc2ncncc2-c2ccccc2C(F)(F)F)c1`, for which the “activity change, negative = inhibition” value was inactive: 22%.
With `CN(Cc1ccco1)c1ncnc2ccc(-c3ccc4c(c3)OCO4)cc12`, the “activity change, negative = inhibition” value is inactive: -1.48%.
`COc1cc(CN2CCC3(CC2)CC3C(=O)Nc2ccc3sc(C)nc3c2)ccc1F` (stereo not given): the “activity change, negative = inhibition” value was inactive: 10.3%.
`OC[C@H]1O[C@@H](n2cnc3c(NCc4ccccc4)ncnc32)[C@H](O)[C@@H]1O`: the “activity change, negative = inhibition” value is inactive: 8.34%.
As for `Oc1ccc(CCNCCCCCCNCCc2ccccc2)cc1O`, the “activity change, negative = inhibition” value is inactive: 19%.
In the case of `CC1=CC(=C(c2ccc(N)cc2)c2ccc(N)cc2)C=CC1=N`, the “activity change, negative = inhibition” value is inactive: -0.98%.
Take `COc1ccc(SCCN2CC[C@@H](C(C)(C)C)CCC2=O)cc1`: the “activity change, negative = inhibition” value was inactive: -19%.
As to `C=CCN(c1ccc(Br)cc1C(=O)OC)S(C)(=O)=O`, the “activity change, negative = inhibition” value is inactive: 17.1%.
With `COc1ccc(CN2CCC(=O)N([C@H](CO)Cc3ccccc3)CC2)cc1OC`, the “activity change, negative = inhibition” value was inactive: -23.8%.
Consider `NCCCC(O)(P(=O)(O)O)P(=O)(O)O`, for which the activity change, negative = inhibition result was “inactive”.
As to `O=C(Nc1ccccc1)N1CCCC2(CCN(C(=O)c3csnn3)CC2)C1`, the “activity change, negative = inhibition” value is inactive: 8.06%.
The figure for `O=C(c1ccncc1)N1CCC[C@@]2(CCN(c3ccncc3)C2)C1` is inactive: 11.1%; for `Nc1ccc(S(=O)(=O)Nc2cnc3ccccc3n2)cc1` it is “inactive”; for `Cc1ccccc1CN1CCc2nnc(C(C)NC(=O)C3CCN(C)CC3)n2CC1` (stereo not given) it is inactive: 7.51%.
Turning to `COCC(=O)N1CCC2(CCCN(c3ccccn3)C2)CC1`, the “activity change, negative = inhibition” value is inactive: 2.41%.
Consider `c1cc2c3c(c1)CCC[N+]3(C1CCCCC1)CCC2`, for which the “activity change, negative = inhibition” value is inactive: -21%.
Regarding `COC(=O)N[C@H](C(=O)N[C@@H](Cc1ccccc1)[C@@H](O)CN(Cc1ccc(-c2ccccn2)cc1)NC(=O)[C@@H](NC(=O)OC)C(C)(C)C)C(C)(C)C`, the “activity change, negative = inhibition” value is inactive: -9.94%.
Consider `CC1(C)CC[C@]2(C)CC[C@@]3(C)C(=CCC4[C@@]5(C)CCC(O)C(C)(C)C5CC[C@@]43C)C2C1` (stereo not given in full), for which the “activity change, negative = inhibition” value is inactive: 7.09%.
Take `O=c1[nH]c(=O)n([C@H]2C[C@@H](O)[C@@H](CO)O2)cc1C=CBr`: the “activity change, negative = inhibition” value is inactive: 4.91% [at 75.8 µM].
Regarding `COc1ccc(C(=O)N2CCC3(CCCN(Cc4ccncc4)C3)CC2)cc1`, the “activity change, negative = inhibition” value is inactive: 12.5%.
Take `COc1ccc(Oc2ncc3nc(-c4cc(F)cc(F)c4)c(=O)n(C4CC4)c3n2)cc1`: the “activity change, negative = inhibition” value is inactive: 11.5%.
For `CC(C)NC(=O)N1CC[C@@]2(CCCN(C(=O)c3csnn3)C2)C1`, the “activity change, negative = inhibition” value is inactive: 19.7%.
